Source: the supplement of paper PMC9446081
The whole screen tested about 39,000 compounds, of which about 220 (0.56%) showed activity. This is one part of the list.

Test system: Escherichia coli K-12 BW25113
Test: relative growth (OD600 normalised to plate interquartile mean) (fraction); higher = less growth inhibition, active = 0.2 or less
Settings: 50 µM; LB; incubation time: overnight (16-24 h)
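Also: static incubation at 37 °C against the wild-type strain, values averaged over two biological replicates.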

Compound	relative growth
CCCC#Cc1ccc2c(c1)O[C@@H](CN(C)C(=O)c1cnccn1)[C@H](C)CN([C@@H](C)CO)S2(=O)=O	inactive: 1
Cc1noc(C)c1NC(=O)Nc1ccc2c(c1)C(=O)N([C@H](C)CO)C[C@@H](C)[C@H](CN(C)S(=O)(=O)c1cccs1)OCCCC[C@@H](C)O2	inactive: 0.984
O=C(C[C@H]1C[C@@H]2c3cc(NC(=O)c4ccc5c(c4)OCO5)ccc3O[C@@H]2[C@@H](CO)O1)NCCN1CCCCC1	inactive: 1.02
COc1ccc(NC(=O)Nc2ccc3c(c2)C(=O)N([C@H](C)CO)C[C@H](C)[C@H](CN(C)Cc2ccc(Cl)c(Cl)c2)O3)cc1	inactive: 1
C[C@@H]1CCCCO[C@@H](CN(C)Cc2ccc(Cl)c(Cl)c2)[C@H](C)CN([C@@H](C)CO)C(=O)c2cc(NC(=O)NC3CCCCC3)ccc2O1	inactive: 1.01
C[C@@H]1CCCCO[C@@H](CN(C)C(=O)CCC(F)(F)F)[C@H](C)CN([C@H](C)CO)C(=O)c2cc(NS(=O)(=O)c3ccc(Cl)cc3)ccc2O1	inactive: 0.995
C[C@@H]1CN([C@@H](C)CO)C(=O)c2cc(NC(=O)Cc3ccccc3)ccc2O[C@@H](C)CCCCO[C@@H]1CN(C)C(=O)Nc1ccccc1	inactive: 0.982
O=C(C[C@@H]1C[C@H]2c3cc(NC(=O)Nc4ccc(C(F)(F)F)cc4)ccc3O[C@H]2[C@H](CO)O1)NC1CCCCC1	inactive: 1.01
C[C@@H]1CN([C@H](C)CO)S(=O)(=O)c2ccc(C3=CCCC3)cc2O[C@@H]1CN(C)S(=O)(=O)c1cn(C)cn1	inactive: 1.02
CCCN(C)C[C@@H]1Oc2cc(C#Cc3cccc(OC)c3)ccc2S(=O)(=O)N([C@@H](C)CO)C[C@@H]1C	inactive: 0.996
C[C@@H]1CN([C@@H](C)CO)C(=O)c2cccc(NC(=O)Nc3cccc4ccccc34)c2O[C@H]1CN(C)S(=O)(=O)c1ccc(Cl)cc1	inactive: 0.991
C[C@@H]1CN([C@H](C)CO)C(=O)Cc2cc(NC(=O)Nc3cccc4ccccc34)ccc2O[C@@H]1CN(C)S(=O)(=O)c1cccs1	inactive: 0.985
C[C@@H]1CN([C@H](C)CO)C(=O)c2cc(NC(=O)CCC(F)(F)F)ccc2O[C@@H](C)CCCCO[C@H]1CN(C)C(=O)Nc1ccc(F)cc1	inactive: 1.01
COc1ccccc1CN1C[C@@H](C)[C@H](OC)CN(C)C(=O)c2ccc(NC(=O)Nc3ccccc3OC)cc2OC[C@H]1C	inactive: 1.02
C[C@H]1CCCCO[C@@H](CN(C)C(=O)Nc2ccc(F)cc2)[C@@H](C)CN([C@@H](C)CO)C(=O)c2cc(NC(=O)Nc3ccc(C(F)(F)F)cc3)ccc2O1	inactive: 1.01
C[C@@H]1CN([C@H](C)CO)C(=O)c2cccc(NS(=O)(=O)c3cccs3)c2O[C@@H]1CN(C)S(C)(=O)=O	inactive: 1.03
COc1ccc(NC(=O)N(C)C[C@@H]2OCCCC[C@@H](C)Oc3ccc(NC(=O)Cc4ccccc4)cc3C(=O)N([C@@H](C)CO)C[C@H]2C)cc1	inactive: 0.987
COc1ccc(S(=O)(=O)N(C)C[C@@H]2Oc3ccc(NC(=O)c4ccncc4)cc3CC(=O)N([C@@H](C)CO)C[C@H]2C)cc1	inactive: 1.02
C[C@@H]1CCCCO[C@@H](CN(C)C(=O)Nc2ccc(F)cc2)[C@@H](C)CN([C@H](C)CO)C(=O)c2cc(NC(=O)NC3CCCCC3)ccc2O1	inactive: 1
COc1ccc(CN(C)C[C@@H]2OCCCC[C@H](C)Oc3ccc(NS(=O)(=O)c4c(C)noc4C)cc3C(=O)N([C@H](C)CO)C[C@H]2C)cc1	inactive: 1

Compound	relative growth
C[C@H]1CN([C@@H](C)CO)C(=O)Cc2cc(NC(=O)CCN3CCOCC3)ccc2O[C@H]1CN(C)Cc1ccc2c(c1)OCO2	inactive: 0.965
C[C@H](CO)N1C[C@H](C)[C@H](CN(C)C(=O)Nc2ccccc2)Oc2ccc(NC(=O)Nc3ccc(C(F)(F)F)cc3)cc2C1=O	inactive: 1.01
COc1ccc(NC(=O)Nc2ccc3c(c2)C(=O)N([C@@H](C)CO)C[C@H](C)[C@@H](CN(C)C(=O)Nc2cccc4ccccc24)OCCCC[C@@H](C)O3)cc1	inactive: 1.02
C[C@H]1CN([C@@H](C)CO)C(=O)c2cccc(NS(=O)(=O)c3ccccc3)c2O[C@H]1CN(C)S(=O)(=O)c1ccccc1	inactive: 0.999
CCS(=O)(=O)Nc1ccc2c(c1)C(=O)N(C)[C@@H]1CC[C@H](CC(=O)NCc3ccc(OC)cc3)O[C@@H]1CO2	inactive: 0.988
O=C(C[C@H]1C[C@H]2c3cc(NS(=O)(=O)c4ccc(F)cc4)ccc3O[C@H]2[C@H](CO)O1)N1CCCCC1	inactive: 0.994
COc1ccc(CN(C)C[C@@H]2Oc3ccc(NS(C)(=O)=O)cc3CC(=O)N([C@@H](C)CO)C[C@H]2C)cc1	inactive: 1
C[C@@H]1CCCCO[C@@H](CN(C)C(=O)Nc2ccccc2)[C@@H](C)CN([C@@H](C)CO)C(=O)c2cc(NC(=O)Nc3cccc4ccccc34)ccc2O1	inactive: 0.98
Cc1nn(C)cc1NC(=O)C[C@@H]1CC[C@H]2[C@@H](COc3ccc(NC(=O)C4CCOCC4)cc3C(=O)N2C)O1	inactive: 0.972
COCC#Cc1cnc2c(c1)C(=O)N([C@@H](C)CO)C[C@@H](C)[C@H](CN(C)S(=O)(=O)c1cn(C)cn1)O2	inactive: 0.987
COc1ccc(NC(=O)N(C)C[C@@H]2Oc3ccc(NC(=O)C4CC4)cc3C(=O)N([C@H](C)CO)C[C@H]2C)cc1	inactive: 0.991
COc1ccc(CNC(=O)[C@H](c2ccc(C)cc2)N(Cc2cccs2)C(=O)c2ccc3c(c2)OCCO3)cc1	inactive: 0.984
Cc1ccc(S(=O)(=O)N(C)C[C@H]2Oc3ccc(NS(=O)(=O)c4c(C)noc4C)cc3C(=O)N([C@@H](C)CO)C[C@@H]2C)cc1	inactive: 1.03
COc1ccccc1-c1ccc2c(c1)O[C@@H](CN(C)S(=O)(=O)c1ccccc1)[C@@H](C)CN([C@@H](C)CO)S2(=O)=O	inactive: 1.03
Cc1cc(C(=O)NCc2cc3n(n2)CCN(S(C)(=O)=O)C3)nc(C)n1	inactive: 0.962
O=C(C[C@H]1C[C@@H]2c3cc(NC(=O)Cc4ccncc4)ccc3O[C@@H]2[C@@H](CO)O1)NCCN1CCCCC1	inactive: 0.983
C[C@@H]1CN([C@@H](C)CO)C(=O)c2cc(NS(=O)(=O)c3ccccc3)ccc2O[C@@H]1CN(C)S(=O)(=O)c1cn(C)cn1	inactive: 1.02
Cc1noc(C)c1S(=O)(=O)Nc1ccc2c(c1)C(=O)N([C@@H](C)CO)C[C@@H](C)[C@H](CN(C)C(=O)Nc1ccc(C(F)(F)F)cc1)OCCCC[C@@H](C)O2	inactive: 1.01
C[C@]12CC[C@@H]3c4ccc(O)cc4C[C@@H](CCCCCCCCC[S@@](=O)CCCC(F)(F)C(F)(F)F)[C@H]3[C@@H]1CC[C@@H]2O	inactive: 1.01
C[C@@H]1CN([C@H](C)CO)C(=O)c2cccc(NS(C)(=O)=O)c2O[C@@H]1CN(C)C(=O)NC1CCCCC1	inactive: 0.99

Compound	relative growth
CC(C)c1cc(=O)nc[nH]1	inactive: 0.991
NNC(=S)NCc1ccc(F)cc1	inactive: 0.993
C[C@H](CO)N1C[C@H](C)[C@H](CN(C)C(=O)Nc2cccc3ccccc23)Oc2ncc(C#Cc3ccccc3)cc2C1=O	inactive: 0.961
COc1ccc(NC(=O)N(C)C[C@@H]2OCCCC[C@H](C)Oc3ccc(NS(=O)(=O)c4cccs4)cc3C(=O)N([C@H](C)CO)C[C@@H]2C)cc1	inactive: 1.02
C[C@@H]1CCCCO[C@H](CN(C)Cc2ccc(Cl)c(Cl)c2)[C@@H](C)CN([C@H](C)CO)C(=O)c2cc(NS(=O)(=O)c3ccc(F)cc3)ccc2O1	inactive: 1.01
COc1ccc(NC(=O)Nc2ccc3c(c2)CC(=O)N([C@@H](C)CO)C[C@@H](C)[C@H](CN(C)S(=O)(=O)c2cn(C)cn2)O3)cc1	inactive: 0.993
CC(C)(CO)NC(=O)C(=O)NC1CC1	inactive: 0.986
Nn1c(Nc2ccc(Cl)cc2)nncc1=O	inactive: 0.978
CO[C@@H]1CN(C)C(=O)c2ccc(NS(C)(=O)=O)cc2OC[C@H](C)N(C(=O)CN(C)C)C[C@@H]1C	inactive: 1.02
CCS(=O)(=O)Nc1ccc2c(c1)C(=O)N(C)[C@H]1CC[C@H](CC(=O)NCc3ccccc3F)O[C@@H]1CO2	inactive: 0.964
C[C@@H]1CN([C@@H](C)CO)C(=O)c2cc(NS(=O)(=O)c3ccc(F)cc3)ccc2O[C@@H](C)CCCCO[C@H]1CN(C)Cc1ccccc1	inactive: 0.979
C[C@H]1CN([C@@H](C)CO)C(=O)c2cccc(NC(=O)Nc3ccc(C(F)(F)F)cc3)c2O[C@H]1CN(C)C(=O)Nc1ccc2c(c1)OCO2	inactive: 0.872
COc1ccc(S(=O)(=O)Nc2ccc3c(c2)C(=O)N([C@@H](C)CO)C[C@H](C)[C@H](CN(C)C(=O)CCC(F)(F)F)OCCCC[C@@H](C)O3)cc1	inactive: 0.972
NNc1ccc2nncn2n1	inactive: 0.977
COc1ccc(CN(C)C[C@@H]2Oc3ccc(NC(=O)Nc4ccc(C(F)(F)F)cc4)cc3CC(=O)N([C@H](C)CO)C[C@@H]2C)cc1	inactive: 1.04
Cc1ccc(C(=O)N2c3ccccc3Sc3ccccc32)cc1	inactive: 1.02
C[C@@H]1CN([C@@H](C)CO)C(=O)c2cc(NS(=O)(=O)c3cccs3)ccc2O[C@@H](C)CCCCO[C@H]1CN(C)Cc1ccc(C(F)(F)F)cc1	inactive: 1.03
C[C@H](CO)N1C[C@H](C)[C@H](CN(C)Cc2cccc(C(=O)O)c2)OCc2ccccc2-c2c(n(C)c3ccccc23)C1=O	inactive: 0.957
